Measurements: PubChem BioAssay AID1745845 (National Center for Advancing Translational Sciences (NCATS), 2022)
Values joined by “and” are separate entries in the source; they are usually repeats but may differ in a detail not shown here. Equal entries are not always repeated. Hit rate of the full screen: of about 360,000 compounds, about 2,600 (0.72%) were called active. The shares of active, inactive and inconclusive entries below differ from those in the screen. Calls follow the shape of the dose curve; as a rule, active = well fitted inhibition curve with a large enough effect; inconclusive = small, poorly fitted or top-dose-only effect; inactive = no such curve, though single readings can be large or run the other way. Where the call is inconclusive, the potency comes from a doubtful curve fit.
% is scaled to controls: 0 for no effect and ±100 for the full control effect; potency is read from the fitted curve at half-maximal effect; tags tell the direction and shape of the fitted curve.

Assay: Primary qHTS for Inhibitors of ATXN expression; also: nearly all actives have a fitted effect of over 55% in size
Conditions: HEK-293 ATXN2-luciferase reporter, luminescence, 24 h; activity change, negative = inhibition: at 57 µM (top of the series)
Method in brief: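 qHTS (up to 57 uM final) was run with 24 h compound exposure of reporter cells at 37 °C. Each well was multiplexed: SteadyGlo luminescence measured ATXN2-luciferase expression after a fluorogenic Gly-Phe-AFC viability readout (25 uM final).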
For `CCc1nc(SCC(=O)Nc2ccc3c(c2)OCCO3)c2oc3ccccc3c2n1`, the Potency was inconclusive: 35.5 µM [inhibitor, single point].
With `Cc1ccc(OCC(=O)NNC(=S)NC(=O)C(C)(C)C)c(Br)c1` the Potency was inconclusive: 31.6 µM [inhibitor, single point].
For `COc1ccc(-c2nnc(C3CCN(S(=O)(=O)c4ccccc4)CC3)o2)cc1`, the Potency was inconclusive: 33.6 µM [inhibitor, single point].
In the case of `Cc1nnc(-c2cccc(Br)c2)c2cn(-c3cccc(Br)c3)nc12`, the “activity change, negative = inhibition” value is reported as inactive: -10.6%.
With `Cc1nn(-c2ccccc2)c(C)c1/C=N/NC(=O)CSc1nc2ccccc2c(=O)n1-c1ccc(Br)cc1` the Potency was inconclusive: 14.1 µM [inhibitor, partial curve].
For `Cc1sc2nc(C(C)C)nc(SCC(=O)N3CCOCC3)c2c1C`, the “activity change, negative = inhibition” value was inactive: 2.31%.
In the case of `Clc1ccc(C(Cn2ccnc2)OCc2ccsc2Cl)c(Cl)c1` (stereo unspecified), the Potency is reported as inconclusive: 35.5 µM [inhibitor, single point] and inconclusive: 43.2 µM [inhibitor, single point].
With `O=C(Nc1ccc(N2CCCCCC2)cc1)c1cccc(S(=O)(=O)N2CCOCC2)c1` the Potency was inconclusive: 1.78 µM [inhibitor, full curve].
In the case of `Cc1ccc(Cn2c(=O)n(CCc3ccccc3)c(=O)c3c(C)c(C)sc32)cc1`, the “activity change, negative = inhibition” value is reported as inactive: -1.68%.
In the case of `COc1ccc(/C(N)=N/OC(=O)N2CCOCC2)cc1`, the Potency is reported as inconclusive: 18.9 µM [inhibitor, single point].
In the case of `COc1ccc(Cn2cc(CN(C)C3CN(Cc4cn(Cc5ccc(OC)cc5)nn4)S(=O)(=O)C3)nn2)cc1` (stereo unspecified), the “activity change, negative = inhibition” value is reported as inactive: 4.02%.
In the case of `CN(C)C(=O)NC(Nc1ccc(Cl)cc1Cl)C(Cl)(Cl)Cl` (stereo unspecified), the “activity change, negative = inhibition” value is reported as inactive: -24.2%.
In the case of `Cc1[nH]c2ccccc2c1C(=O)COC(=O)Cn1cnc2ccccc21`, the activity change, negative = inhibition is reported as inactive: 9.51% [at 11.3 µM].
With `COc1ccc(CCNC(=O)CSc2cn(CCNC(=O)c3ccccc3F)c3ccccc23)cc1OC` the “activity change, negative = inhibition” value was inactive: -22.6%.
With `CCCCOC(=O)Cn1nnc2sc(-c3ccccc3)cc2c1=O` the “activity change, negative = inhibition” value was inactive: 5.23%.
In the case of `Cc1cccc(C)c1NC(=O)CN(C)C(=O)C(c1ccccc1)c1ccccc1`, the Potency is reported as inconclusive: 1.5 µM [inhibitor, partial curve, poor fit].
In the case of `CCN1CC(CNCc2cn(-c3ccc(OC)cc3)nc2-c2ccccc2Cl)CC1=O` (stereo unspecified), the “activity change, negative = inhibition” value is reported as inactive: 20.1%.
For `O=C(Oc1ccc(Br)cc1C(=O)/C=C/c1ccccc1F)c1ccco1`, the Potency was inconclusive: 39.8 µM [inhibitor, single point].
With `CC1(Cc2ccccc2OC(F)(F)F)C(=O)Nc2ccc(S(=O)(=O)NC3CCCCC3)cc21` (stereo unspecified) the Potency was inconclusive: 39.8 µM [inhibitor, partial curve, poor fit].
For `CCOc1cc(CNC2CCCC2)cc(Cl)c1OCc1ccc(F)cc1`, the Potency was active: 22.4 µM.
For `COC(=O)c1ccc(/C=N/NS(=O)(=O)c2cc(C)ccc2C)cc1`, the “activity change, negative = inhibition” value was inactive: 7.95%.
With `CC(C)(C)C1CCc2onc(C(=O)Nc3cnn(Cc4ccc(F)cc4)c3)c2C1` (stereo unspecified) the Potency was inconclusive: 20 µM [inhibitor, partial curve].
With `CC(C)C[C@@H](COCc1cccc(C(F)(F)F)c1)N1CCN(C(=O)c2ccc(C(F)(F)F)cc2)CCC1=O` the Potency was inconclusive: 28.2 µM [inhibitor, partial curve, poor fit].
For `Cc1noc(C(=O)Nc2ccc(F)c(Cl)c2)c1Cl`, the “activity change, negative = inhibition” value was inactive: 34.3%.
In the case of `O=C(c1cnc(Cl)c(Cl)c1)N1CCN(S(=O)(=O)c2ccc3ccccc3c2)CC1`, the Potency is reported as inconclusive: 39.8 µM [inhibitor, single point].
With `Cc1ccc(O)c(C(=O)CC(=O)c2ccc(C(C)(C)C)cc2)c1` the “activity change, negative = inhibition” value was inactive: 4.09%.
For `Cc1ccc(NC(=S)N=Nc2c(O)n(C)c3ccc(S(=O)(=O)N4CCOCC4)cc23)cc1`, the Potency was inconclusive: 4.47 µM [inhibitor, partial curve, poor fit].
For `O=C(Nc1ccc(F)cc1F)c1ccc(S(=O)(=O)N2CCCCC2)cc1`, the “activity change, negative = inhibition” value was inactive: -2.81%.
For `O=C(CCCNS(=O)(=O)c1cccc2nsnc12)NCCc1ccccc1`, the “activity change, negative = inhibition” value was inactive: 4.97%.
In the case of `Cc1cc(C)c(C)c(S(=O)(=O)N(C)CCc2ccccn2)c1C`, the “activity change, negative = inhibition” value is reported as inactive: 9.73%.
In the case of `C[C@@H](NCCCn1cnc2c(OCc3ccccc3)ncnc21)c1cccc2ccccc12`, the Potency is reported as inconclusive: 28.2 µM [inhibitor, single point].
For `Cc1ccccc1NS(=O)(=O)c1ccc(C(=O)NNC(=O)c2ccccc2O)cc1`, the Potency was inconclusive: 8.91 µM [inhibitor, partial curve, poor fit].
In the case of `CCN(C(=O)c1ccc(Cl)c([N+](=O)[O-])c1)c1ccccc1`, the Potency is reported as inconclusive: 26.7 µM [inhibitor, partial curve, poor fit].
For `COC(=O)c1c(-c2ccc(OC)cc2)sc2cc(OC)c(OC)cc12`, the “activity change, negative = inhibition” value was inactive: -8.42%.
With `Cc1ccccc1NS(=O)(=O)c1cc(C(=O)NCCSC2CCCCC2)ccc1C` the Potency was inconclusive: 28.2 µM [inhibitor, partial curve, poor fit].
With `COc1ccc(C(=O)Nc2ccc(N3CCN(C(=O)c4ccccc4)CC3)cc2)cc1[N+](=O)[O-]` the Potency was inconclusive: 16.8 µM [inhibitor, partial curve, poor fit].
For `Cc1ccc(C(=O)Nc2ccccc2)cc1S(=O)(=O)Nc1ccc(Br)cc1`, the Potency was inconclusive: 31.6 µM [inhibitor, single point].
In the case of `Clc1cc(Cl)cc(CNc2ncncc2-c2ccc3c(c2)OCO3)c1`, the Potency is reported as inconclusive: 43.2 µM [inhibitor, single point].
With `CCOc1ccc(CN(C)CC(=O)c2c(N)n(Cc3ccccc3)c(=O)n(CC)c2=O)cc1OC` the “activity change, negative = inhibition” value was inactive: 1.17%.
For `C=CCn1c(SCC2CCCCO2)nc2sc(CC)cc2c1=O` (stereo unspecified), the Potency was inconclusive: 5.62 µM [inhibitor, partial curve, poor fit].
In the case of `CC(=O)N(C(C)=O)c1ncnc2c1c(-c1ccc(Cl)cc1)nn2C(C)(C)C`, the Potency is reported as inconclusive: 33.6 µM [inhibitor, single point].
With `CC(O)CNCCCOc1cccc(Oc2ccccc2)c1` (stereo unspecified) the “activity change, negative = inhibition” value was inactive: -27.1%.
With `COc1cc(NC(=O)c2cccs2)c(C(=O)OCC(=O)c2cc(C)n(-c3ccccc3)c2C)cc1OC` the Potency was inconclusive: 11.2 µM [inhibitor, partial curve].
With `O=C(N/N=C\c1ccc([N+](=O)[O-])s1)C1COc2ccccc2O1` (stereo unspecified) the Potency was inconclusive: 39.8 µM [inhibitor, partial curve, poor fit].
In the case of `Cc1cnc(C)c(Nc2nc(C(N)Cc3ccc(F)cc3)cs2)n1` (stereo unspecified), the Potency is reported as inconclusive: 31.6 µM [inhibitor, single point].
For `COc1ccc(S(=O)(=O)N2CCN(c3nc(-c4cccnc4)nc4ccccc34)CC2)cc1`, the Potency was inconclusive: 25.1 µM [inhibitor, partial curve, poor fit].
In the case of `Cc1cccc(OCc2nc(CC(=O)Nc3ccc(C)cc3C)cs2)c1`, the Potency is reported as inconclusive: 25.1 µM [inhibitor, partial curve, poor fit].
With `CCOC(=O)C1=C(c2ccccc2)N=c2s/c(=C\c3ccc(O)cc3)c(=O)n2C1c1cccs1` (stereo unspecified) the Potency was active: 28.2 µM.
With `CC1(Cc2ccc(Cl)cc2)C(=O)Nc2ccc(S(=O)(=O)NC3CCCCC3)cc21` (stereo unspecified) the Potency was inconclusive: 35.5 µM [inhibitor, single point].
With `COc1ccc(NC(=O)CSc2oc(-c3ccc(F)cc3)nc2S(=O)(=O)c2ccc(C)cc2)c(OC)c1` the “activity change, negative = inhibition” value was inactive: 16.3%.
For `Cc1ccc(CN(Cc2cc3cc4c(cc3[nH]c2=O)OCCO4)Cc2nnnn2Cc2ccco2)cc1`, the Potency was inconclusive: 35.5 µM [inhibitor, partial curve, poor fit].
With `C[C@]12c3[nH]c4ccc(Cl)cc4c3CCN1C(=O)[C@@H](CC(=O)NCc1cccc(C(F)(F)F)c1)C[C@@H]2C(=O)N1CCOCC1` the Potency was inconclusive: 25.1 µM [inhibitor, single point].
With `NC(Cc1ccc(F)cc1)c1csc(NC(=O)NC(c2ccccc2)c2ccccc2)n1` (stereo unspecified) the Potency was inconclusive: 31.6 µM [inhibitor, single point].
In the case of `CC1=C(C(=O)Nc2ccccc2)C(c2ccc(C)cc2)N=C(Nc2nc3ccccc3o2)N1` (stereo unspecified), the Potency is reported as inconclusive: 20 µM [inhibitor, partial curve, poor fit].
In the case of `COc1ccc2cc3cc(C(=O)Nc4cc(C)c(Cl)cc4OC)oc3nc2c1`, the “activity change, negative = inhibition” value is reported as inactive: 1.64%.
For `COC(=O)[C@]12CCCCC=C1N(CCC1=CCCCC1)C(=O)[C@H](CC(=O)NCCc1ccccc1OC)C2`, the Potency was inconclusive: 39.8 µM [inhibitor, single point].
For `C=CCc1cccc(C=Nc2c[nH]c(=O)[nH]c2=O)c1O`, the “activity change, negative = inhibition” value was inactive: -8.55%.
With `CCc1c2c(nc3ccc(O)cc13)-c1cc3c(c(=O)n1C2)COC(=O)[C@]3(O)CC` the Potency was active: 0.0061 µM.
In the case of `CCc1nc2ccc(C(=O)NCCCN(C)C)cn2c1N(C)CCCc1ccccc1`, the Potency is reported as inconclusive: 39.8 µM [inhibitor, single point].
For `Cc1ccc2oc(=O)cc(CN3CCCCC3)c2c1`, the “activity change, negative = inhibition” value was inactive: 7.21%.
In the case of `C[C@@H]1CN([C@H](C)CO)C(=O)CCCn2cc(nn2)CO[C@H]1CN(C)C(=O)Nc1cccc(C(F)(F)F)c1`, the “activity change, negative = inhibition” value is reported as inactive: 3.32%.
In the case of `CCc1ccccc1NC(=O)Cn1c(=O)n(CCCCCC(=O)NCc2ccc(C)cc2)c(=O)c2sccc21`, the “activity change, negative = inhibition” value is reported as inactive: -3.68%.
For `CCC(Sc1nc2ccncc2[nH]1)C(=O)Nc1cc(Cl)ccc1C` (stereo unspecified), the Potency was inconclusive: 15.8 µM [inhibitor, partial curve, poor fit].
With `CN1C(=O)c2ccccc2C1=O` the “activity change, negative = inhibition” value was inactive: 23.2% [at 116 µM].
With `O=C(CSc1nnc(-c2ccc3c(c2)OCO3)n1-c1ccccc1)c1ccc(Cl)cc1` the Potency was inconclusive: 39.8 µM [inhibitor, partial curve, poor fit].
For `COc1ccc(C(=O)N2CCC(c3nc4ccccc4s3)CC2)cc1Cl`, the Potency was inconclusive: 25.1 µM [inhibitor, single point].
